The record followed here is the supplement of paper PMC12217912.

Some of the results follow. The full chains were built here from the parent and the listed change. Values near 0.05 are background.

First the molecules themselves.
B1: TEV protease; numbered along this chain (parent)
chain: MGESLFKGPRDYNPISSSICHLTNESDGHTTSLYGIGFGPFIITNKHLFRRNNGTLVVQSLHGVFKVKDTTTLQQHLVDGRDMIIIRMPKDFPPFPQKLKFREPQREERICLVTTNFQTKSMSSMVSDTSCTFPSGDGIFWKHWIQTKDGQCGSPLVSTRDGFIVGIHSASNFTNTNNYFTSVPKNFMELLTNQEAQQWVSGWRLNADSVLWGGHKVFMVKPEEPFQPVKEATQL

Variants of B1 are the subject of this assay. The assay is described as follows: raw area under fraction-flipped curve 0-4 h after induction (AUC4h, not background-subtracted), DNA-recorder readout of cleavage of the substrate (dimensionless); higher = more cleavage of the substrate by the protease variant. As to conditions: temperature: 34 °C; time window: 0-4 h after rhamnose induction.
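Further: Bxb1 expression induced with 0.2% (w/v) L-rhamnose at OD600 near 0.5, cultures sampled hourly, flipped fraction per protease–substrate barcode pair counted by paired-end Illumina sequencing.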

Take MGESLFKGPRDYNPISSSICHLTNESDGHTTSLYGIGFGPFIITNKHLFRRNNGTLVVQSLHGVFKVKDTTTLQQHLVDGRDMIIIKMPKDFPPFPQKLKFREPQREERICLVTTNFQTKSMSSMVSDTSCTFPSGDGIFWKHWIQTKDGQCGSPLVSTRDGFIVGIHSASNFTNTNNYFTSVPKNFMELLTNQEAQQWVSGWRLNADSVLWGGHKVFMVKPEEPFQPVKEATQL [R87K]: the “area with substrate ENLDFQS” value was 0.0633, the “area with substrate ENLQFQS” value amounted to 0.0656, the “area with substrate ENLRFQS” value came out at 0.113 and the “area with substrate ENLSFQS” value was 0.0697.
For MGESLFKGPRDYNPISSSICHLTNESDGHTTSLYGIGFGPFIITNKHLFRRNNGTLVVQSLHGVFKVKDTTTLQQHLVDGRDMIIIWMPKDFPPFPQKLKFREPQREERICLVTTNFQTKSMSSMVSDTSCTFPSGDGIFWKHWIQTKDGQCGSPLVSTRDGFIVGIHSASNFTNTNNYFTSVPKNFMELLTNQEAQQWVSGWRLNADSVLWGGHKVFMVKPEEPFQPVKEATQL [R87W], the “area with substrate ENLDFQS” value is 0.0589, the “area with substrate ENLFFQS” value is 0.0597, the “area with substrate ENLGFQS” value is 0.0672 and the “area with substrate ENLHFQS” value came out at 0.0665. Besides, the “area with substrate ENLIFQS” value turned out to be 0.0817, the “area with substrate ENLNFQS” value was 0.0887, the “area with substrate ENLQFQS” value is 0.0607 and the “area with substrate ENLRFQS” value was found to be 0.0618. Moreover, the “area with substrate ENLWFQS” value stood at 0.071.
With MGESLFKGPRDYNPISSSICHLTNESDGHTTSLYGIGFGPFIITNKHLFRRNNGTLVVQSLHGVFKVKDTTTLQQHLVDGRDMIIIPMPKDFPPFPQKLKFREPQREERICLVTTNFQTKSMSSMVSDTSCTFPSGDGIFWKHWIQTKDGQCGSPLVSTRDGFIVGIHSASNFTNTNNYFTSVPKNFMELLTNQEAQQWVSGWRLNADSVLWGGHKVFMVKPEEPFQPVKEATQL [R87P], the “area with substrate ENLDFQS” value is 0.0626, the “area with substrate ENLFFQS” value was 0.0589, the “area with substrate ENLGFQS” value came out at 0.0735 and the “area with substrate ENLHFQS” value was 0.0549. Moreover, the “area with substrate ENLIFQS” value worked out at 0.057, the “area with substrate ENLLFQS” value turned out to be 0.0513, the “area with substrate ENLMFQS” value was determined as 0.0425 and the “area with substrate ENLPFQS” value turned out to be 0.0674. For the same variant, the “area with substrate ENLSFQS” value amounted to 0.0626 and the “area with substrate ENLVFQS” value stood at 0.0586.
As to MGESLFKGPRDYNPISSSICHLTNESDGHTTSLYGIGFGPFIITNKHLFRRNNGTLVVQSLHGVFKVKDTTTLQQHLVDGRDAIIIRMPKDFPPFPQKLKFREPQREERICLVTTNFQTKSMSSMVSDTSCTFPSGDGIFWKHWIQTKDGQCGSPLVSTRDGFIVGIHSASNFTNTNNYFTSVPKNFMELLTNQEAQQWVSGWRLNADSVLWGGHKVFMVKPEEPFQPVKEATQL [M83A], the “area with substrate ENLDFQS” value came out at 0.0657, the “area with substrate ENLFFQS” value worked out at 0.0662, the “area with substrate ENLGFQS” value was 0.0748 and the “area with substrate ENLHFQS” value is 0.0548. Besides, the “area with substrate ENLKFQS” value was determined as 0.0832, the “area with substrate ENLLFQS” value amounted to 0.0683, the “area with substrate ENLNFQS” value was 0.0643 and the “area with substrate ENLPFQS” value stood at 0.0654. The “area with substrate ENLRFQS” value is 0.0626, the “area with substrate ENLTFQS” value was found to be 0.0718 and the “area with substrate ENLVFQS” value was determined as 0.0662.
For the variant MGESLFKGPRDYNPISSSICHLTNESDGHTTSLYGIGFGPFIITNKHLFRRNNGTLVVQSLHGVFKVKDTTTLQQHLVDGRDPIIIRMPKDFPPFPQKLKFREPQREERICLVTTNFQTKSMSSMVSDTSCTFPSGDGIFWKHWIQTKDGQCGSPLVSTRDGFIVGIHSASNFTNTNNYFTSVPKNFMELLTNQEAQQWVSGWRLNADSVLWGGHKVFMVKPEEPFQPVKEATQL [M83P], the “area with substrate ENLDFQS” value turned out to be 0.0594, the “area with substrate ENLEFQS” value came to 0.0527, the “area with substrate ENLFFQS” value was 0.0454 and the “area with substrate ENLHFQS” value came to 0.0611. The “area with substrate ENLIFQS” value came to 0.054, the “area with substrate ENLLFQS” value amounted to 0.0571, the “area with substrate ENLNFQS” value came out at 0.054 and the “area with substrate ENLPFQS” value turned out to be 0.0647. Moreover, the “area with substrate ENLQFQS” value is 0.0481, the “area with substrate ENLSFQS” value amounted to 0.0504, the “area with substrate ENLVFQS” value was determined as 0.0469 and the “area with substrate ENLWFQS” value was 0.0572.
For the variant MGESLFKGPRDYNPISSSICHLTNESDGHTTSLYGIGFGPFIITNKHLFRRNNGTLVTQSLHGVFKVKDTTTLQQHLVDGRDMIIIRMPKDFPPFPQKLKFREPQREERICLVTTNFQTKSMSSMVSDTSCTFPSGDGIFWKHWIQTKDGQCGSPLVSTRDGFIVGIHSASNFTNTNNYFTSVPKNFMELLTNQEAQQWVSGWRLNADSVLWGGHKVFMVKPEEPFQPVKEATQL [V58T], the “area with substrate ENLDFQS” value was 0.0651, the “area with substrate ENLEFQS” value is 0.0491, the “area with substrate ENLKFQS” value was 0.0942 and the “area with substrate ENLRFQS” value amounted to 0.0459.
Regarding MGESLFKGPRDYNPISSSICHLTNESDGHTTSLYGIGFGPFIITNKHLFRRNNGTLVVQSLHGVFKVKDMTTLQQHLVDGRDMIIIRMPKDFPPFPQKLKFREPQREERICLVTTNFQTKSMSSMVSDTSCTFPSGDGIFWKHWIQTKDGQCGSPLVSTRDGFIVGIHSASNFTNTNNYFTSVPKNFMELLTNQEAQQWVSGWRLNADSVLWGGHKVFMVKPEEPFQPVKEATQL [T70M], the “area with substrate ENLDFQS” value stood at 0.103, the “area with substrate ENLFFQS” value came to 0.0803, the “area with substrate ENLHFQS” value was 0.0646 and the “area with substrate ENLKFQS” value was 0.0695. Besides, the “area with substrate ENLMFQS” value was found to be 0.0796, the “area with substrate ENLNFQS” value was determined as 0.0692 and the “area with substrate ENLVFQS” value was found to be 0.0636.
Turning to MGESLFKGPRDYNPISSSICHLTNESDGHTTSLYGIGFGPFIITNKHLFRRNNGTLVVQSLHGVFKQKDTTTLQQHLVDGRDMIIIRMPKDFPPFPQKLKFREPQREERICLVTTNFQTKSMSSMVSDTSCTFPSGDGIFWKHWIQTKDGQCGSPLVSTRDGFIVGIHSASNFTNTNNYFTSVPKNFMELLTNQEAQQWVSGWRLNADSVLWGGHKVFMVKPEEPFQPVKEATQL [V67Q], the “area with substrate ENLDFQS” value is 0.068, the “area with substrate ENLFFQS” value stood at 0.0692, the “area with substrate ENLHFQS” value was 0.0634 and the “area with substrate ENLKFQS” value worked out at 0.0684. Also, the “area with substrate ENLLFQS” value stood at 0.0595, the “area with substrate ENLMFQS” value amounted to 0.0644, the “area with substrate ENLRFQS” value came to 0.055 and the “area with substrate ENLSFQS” value came out at 0.0457. The “area with substrate ENLVFQS” value was found to be 0.0754 and the “area with substrate ENLWFQS” value was determined as 0.0622.
Consider MGESLFKGPRDYNPISSSICHLTNESDGHTTSLYGIGFGPFIITNKHLFRRNNGTLVVQSLHGVFKVKDTTTLQQHLVDGRDMQIIRMPKDFPPFPQKLKFREPQREERICLVTTNFQTKSMSSMVSDTSCTFPSGDGIFWKHWIQTKDGQCGSPLVSTRDGFIVGIHSASNFTNTNNYFTSVPKNFMELLTNQEAQQWVSGWRLNADSVLWGGHKVFMVKPEEPFQPVKEATQL [I84Q], for which the “area with substrate ENLDFQS” value came to 0.0651, the “area with substrate ENLEFQS” value worked out at 0.0547, the “area with substrate ENLIFQS” value was 0.0719 and the “area with substrate ENLKFQS” value worked out at 0.0708. Also, the “area with substrate ENLNFQS” value was 0.0718, the “area with substrate ENLPFQS” value was 0.0636, the “area with substrate ENLRFQS” value stood at 0.066 and the “area with substrate ENLVFQS” value turned out to be 0.0652.
Turning to MGESLFKGPRDYNPISSSICHLTNESDGHTTSLYGIGFGPFIITNKHLFRRNNGTLVVQSLHGVFKVKDTTTLQQHLKDGRDMIIIRMPKDFPPFPQKLKFREPQREERICLVTTNFQTKSMSSMVSDTSCTFPSGDGIFWKHWIQTKDGQCGSPLVSTRDGFIVGIHSASNFTNTNNYFTSVPKNFMELLTNQEAQQWVSGWRLNADSVLWGGHKVFMVKPEEPFQPVKEATQL [V78K], the “area with substrate ENLDFQS” value was determined as 0.0583, the “area with substrate ENLEFQS” value turned out to be 0.0485, the “area with substrate ENLFFQS” value came out at 0.0705 and the “area with substrate ENLIFQS” value worked out at 0.0552. Besides, the “area with substrate ENLKFQS” value worked out at 0.072, the “area with substrate ENLLFQS” value stood at 0.0539, the “area with substrate ENLNFQS” value was determined as 0.0573 and the “area with substrate ENLPFQS” value is 0.0523. In addition, the “area with substrate ENLRFQS” value was determined as 0.0588 and the “area with substrate ENLSFQS” value amounted to 0.0454.
